PubChem BioAssay AID1347165 (National Center for Advancing Translational Sciences (NCATS), 2019)
The campaign covered roughly 220,000 compounds. About 5,700 (2.6%) were called active. This list was built around the results that the source calls inconclusive (neither active nor inactive); the mix of calls is not that of the screen. Calls come from the whole dose curve; as a rule, active = well fitted inhibition curve with a large enough effect; inconclusive = small, poorly fitted or top-dose-only effect; inactive = no such curve, though single readings can be large or run the other way. Where the call is inconclusive, the potency comes from a doubtful curve fit.

Target: Lysine-specific demethylase 5B (Homo sapiens) (UniProt Q9UGL1)
UniProt Q9UGL1, sequence (Q9UGL1 whole entry, looked up): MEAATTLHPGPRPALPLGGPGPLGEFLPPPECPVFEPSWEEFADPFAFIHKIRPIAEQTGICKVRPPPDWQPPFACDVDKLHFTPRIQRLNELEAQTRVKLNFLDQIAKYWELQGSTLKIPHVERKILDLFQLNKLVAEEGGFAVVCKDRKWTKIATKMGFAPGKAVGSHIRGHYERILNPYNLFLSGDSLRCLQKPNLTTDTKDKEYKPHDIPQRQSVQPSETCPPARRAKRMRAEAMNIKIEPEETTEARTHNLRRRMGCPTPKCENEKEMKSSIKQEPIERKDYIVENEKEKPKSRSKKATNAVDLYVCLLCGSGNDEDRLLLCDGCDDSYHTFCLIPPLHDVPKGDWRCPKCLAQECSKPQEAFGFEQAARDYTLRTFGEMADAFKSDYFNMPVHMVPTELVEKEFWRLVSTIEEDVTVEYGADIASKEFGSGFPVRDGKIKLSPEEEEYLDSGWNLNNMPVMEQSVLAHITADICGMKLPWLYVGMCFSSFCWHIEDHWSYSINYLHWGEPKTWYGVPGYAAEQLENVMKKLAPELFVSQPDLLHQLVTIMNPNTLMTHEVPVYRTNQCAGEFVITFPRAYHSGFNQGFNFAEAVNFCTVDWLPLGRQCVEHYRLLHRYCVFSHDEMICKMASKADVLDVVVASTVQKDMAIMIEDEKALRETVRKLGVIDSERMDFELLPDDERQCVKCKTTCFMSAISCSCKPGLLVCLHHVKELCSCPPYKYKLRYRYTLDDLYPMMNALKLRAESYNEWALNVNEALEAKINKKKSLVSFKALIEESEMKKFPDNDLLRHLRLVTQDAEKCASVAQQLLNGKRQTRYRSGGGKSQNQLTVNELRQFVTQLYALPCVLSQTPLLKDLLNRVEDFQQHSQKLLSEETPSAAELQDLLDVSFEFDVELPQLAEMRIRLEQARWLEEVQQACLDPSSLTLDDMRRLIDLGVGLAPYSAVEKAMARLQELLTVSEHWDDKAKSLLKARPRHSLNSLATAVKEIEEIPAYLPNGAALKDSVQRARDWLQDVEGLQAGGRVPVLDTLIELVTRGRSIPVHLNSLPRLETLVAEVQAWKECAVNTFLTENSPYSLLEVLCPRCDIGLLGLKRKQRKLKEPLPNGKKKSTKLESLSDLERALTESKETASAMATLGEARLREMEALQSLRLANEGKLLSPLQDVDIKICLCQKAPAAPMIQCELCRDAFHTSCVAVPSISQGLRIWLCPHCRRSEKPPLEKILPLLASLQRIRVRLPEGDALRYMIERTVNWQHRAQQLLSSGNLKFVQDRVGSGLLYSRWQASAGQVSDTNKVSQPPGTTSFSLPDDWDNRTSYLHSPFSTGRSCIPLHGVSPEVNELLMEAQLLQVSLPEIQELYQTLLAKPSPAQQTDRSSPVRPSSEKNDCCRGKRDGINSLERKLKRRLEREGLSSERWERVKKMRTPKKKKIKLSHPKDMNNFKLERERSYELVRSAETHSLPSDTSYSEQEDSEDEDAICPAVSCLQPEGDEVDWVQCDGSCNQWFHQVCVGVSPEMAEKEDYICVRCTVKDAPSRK
Assay: Primary screen for KDM5B Histone Demethylases FDH-coupled qHTS; note: nearly all actives have a fitted effect of over 70% in size; for activity change, negative = inhibition: 0% is about no effect
Details: FDH-coupled NADH fluorescence (FDH is formaldehyde dehydrogenase); activity change, negative = inhibition: at 57.7 µM (top of the series) unless noted
Method in brief: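 Coupled FDH/NAD⁺ fluorescence readout. KDM5BΔAP 200 nM final; compound titration, 10 min RT preincubation; substrate mix 12.5 µM H3K4me3, 25 µM 2-OG, 50 µM Fe(II), 100 µM ascorbate, 0.25 mM NAD⁺, 0.25 U/mL FDH; ΔRFU over 30 min.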
Potency is the fitted concentration of half-maximal effect; tags give direction and shape of the fitted curve.

SMILES | Potency | activity change, negative = inhibition
Cc1sc2ccn(C)c(=O)c2c1C(=O)NCc1ccc(OC(C)C)cc1 | inconclusive: 12.6 µM [inhibitor, partial curve] | –
Fc1ccccc1-c1nnc2sc(-c3ccc4ccccc4n3)nn12 | – | inactive: -12%
CC(=O)c1cccc(NC(=O)c2cc(-c3ccc(Cl)s3)nc3ccccc23)c1 | inconclusive: 2 µM [inhibitor, full curve, poor fit] | –
CC(=O)Nc1ccc(-c2nc(N3CCCC3)sc2C)cc1 | – | inactive: 5.56%
Nc1nccnc1C(=O)NCCSCc1cccs1 | inconclusive: 22.4 µM [inhibitor, partial curve, poor fit] | –
Cn1c(=O)c2c(nc(N3CCN(c4ccccn4)CC3)n2Cc2cccc(Cl)c2)n(C)c1=O | – | inactive: 5.36%
N#Cc1cccc(C(=O)Nc2ccc(Cl)cc2C(F)(F)F)c1 | – | inactive: 18.1%
O=C(Nc1ccc(Oc2ccccc2)cc1)N[C@H]1CO[C@H]2[C@@H]1OC[C@@H]2Nc1nccc(-c2cccs2)n1 | – | inactive: 2.06%
COc1ccc(C(=O)n2nc(-c3ccco3)nc2NCc2cccs2)cc1OC | inconclusive: 35.5 µM [inhibitor, single point] | –
O=C1CC(c2ccccc2)N(C(=O)Cc2cccc(F)c2)CCCCCCN1 (stereo not given) | – | inactive: -2.54%
Cc1ccc2nc3n(c2c1)[C@@H](CNS(=O)(=O)Cc1ccccc1)COC3 | inconclusive: 39.8 µM [inhibitor, partial curve, poor fit] | –
CN(Cc1cnn(C)c1)C(=O)C1C2C(=O)N(Cc3ccc(F)cc3)C[C@@]23C=C[C@@H]1O3 (stereo not given in full) | – | inactive: -11.3%
CCc1nc(Nc2ccc(F)cc2)c2oc3ccccc3c2n1 | inconclusive: 35.5 µM [inhibitor, partial curve, poor fit] | –
Cn1ccc(C(=O)N2CCC(c3nnc4n3C(C(=O)N3CCN(c5ncccn5)CC3)CC4)CC2)n1 (stereo not given) | inconclusive: 70.8 µM [inhibitor, partial curve] | –
CC(C)(C)c1ccc(S(=O)(=O)N2CCN(Cc3noc(CCC(=O)N4CCCCC4)n3)CC2)cc1 | inconclusive: 31.6 µM [inhibitor, partial curve, poor fit] | –
O=C(c1cc2n(n1)CC(c1ccc3c(c1)OCO3)OC2)N1CCCCC1 (stereo not given) | inconclusive: 25.1 µM [inhibitor, partial curve] | –
CCn1nc(C)c(CCN(C)C(=O)Cn2nc3n(c2=O)CCC(N)CC3)c1C (stereo not given) | inconclusive: 12.6 µM [inhibitor, partial curve, poor fit] | –
CCN1c2cc(C(=O)NCc3ccc(F)cc3)ccc2C(=O)N2CCCCCC21 (stereo not given) | inconclusive: 20 µM [inhibitor, partial curve, poor fit] | –
Cc1ccc(/C=C/C(=O)c2cccs2)cc1 | inconclusive: 28.2 µM [inhibitor, single point] | –
CCN1CCC2(CCC1=O)CN(C(=O)c1ccc(CSC)o1)CCN2C (stereo not given) | inconclusive: 22.4 µM [inhibitor, partial curve, poor fit] | –

SMILES | Potency | activity change, negative = inhibition
CC1CCC(=NNC(=O)c2cc(-c3ccc(Cl)cc3)nc3ccccc23)CC1 (stereo not given) | inconclusive: 35.5 µM [inhibitor, single point] | –
O=C1CO[C@H]2CCN(Cc3ccccn3)CC[C@@H]2N1c1ccccc1 | inconclusive: 39.8 µM [inhibitor, partial curve, poor fit] | –
Cc1cc(C(=O)OCC(=O)NC2CC2)c2ccccc2n1 | inconclusive: 39.8 µM [inhibitor, single point] | –
O=[S+]([O-])(c1ccccc1)N1Cc2ccccc2CC2(CCCN2Cc2ccncc2)C1 (stereo not given) | inconclusive: 50.1 µM [inhibitor, partial curve] | –
CCOCCCNc1ncnc2c1cnn2-c1ccc(C)c(C)c1 | inconclusive: 25.1 µM [inhibitor, partial curve, poor fit] | –
CCc1cnc(C)nc1N1CCC(Oc2ccccc2OC)(C(=O)O)CC1 | – | inactive: 5.63%
CN(c1ccc(C(=O)N2CCOCC2)cc1)S(=O)(=O)c1ccc(Cl)cc1 | inconclusive: 22.4 µM [inhibitor, partial curve, poor fit] | –
CC(C)COc1ccc(C(=O)Nc2ccc(N3CCOCC3)cc2N2CCOCC2)cc1 | inconclusive: 31.6 µM [inhibitor, single point] | –
CCC(C)C(=O)Nc1c(C(=O)OC)n(CC2CCCO2)c2ncc(NC(C)CCO)cc12 (stereo not given) | active: 6.31 µM | –
Cc1ccc(C)c(Cn2cc(S(=O)(=O)c3ccc(Cl)cc3)c(=O)c3cc(F)ccc32)c1 | – | inactive: 8.91%
CCCCN(CCCC)CCNC(=O)c1cn(CC)c2ccc(S(=O)(=O)N(C)C3CCCCC3)cc2c1=O | inconclusive: 1.58 µM [inhibitor, full curve, poor fit] | –
CCOC(=O)N1CCC(N2CCN(S(=O)(=O)c3ccc([N+](=O)[O-])cc3)CC2)CC1 | inconclusive: 14.1 µM [inhibitor, partial curve, poor fit] | –
O=C(CN1CCN(C(=O)c2ccccc2-c2ncc(-c3ccccc3)o2)CC1)N1CCCC1 | inconclusive: 25.1 µM [inhibitor, single point] | –
Cc1ccc(N2C(=O)CC(Sc3cccs3)C2=O)cc1 (stereo not given) | inconclusive: 39.8 µM [inhibitor, single point] | –
CN(C)C(=O)c1ccc(NC(=O)c2cc(-c3ccncc3)nc3ccccc23)cc1 | – | inactive: -17%
O=C(CCS(=O)(=O)c1cccs1)Nc1ccc(C(=O)Nc2ccccc2F)cc1 | inconclusive: 15.8 µM [inhibitor, partial curve, poor fit] | –
CCSc1ncc(Cl)c(C(=O)Nc2ccc(S(=O)(=O)N3CCCCC3)cc2)n1 | inconclusive: 22.4 µM [inhibitor, single point] | –
CCCCc1ccc(NC(=O)c2ccc(=O)n(Cc3cccc(C)c3)c2)cc1 | inconclusive: 28.2 µM [inhibitor, partial curve, poor fit] | –
O=C(NCCN1CCc2ccccc2C1)c1ccc(Cl)cc1 | – | inactive: -20.2%
Cc1ccc2c(c1)-c1c(cnc3cc(-c4ccccc4)nn13)CO2 | inconclusive: 6.31 µM [inhibitor, partial curve, poor fit] | –
